The values that follow come from ChEMBL document CHEMBL4888484, “Replenishing the malaria drug discovery pipeline: Screening and hit evaluation of the MMV Hit Generation Library 1 (HGL1) against asexual blood stage Plasmodium falciparum ,using a nano luciferase reporter read-out” (2022).

The campaign covered roughly 150,000 compounds. About 540 (0.36%) showed an effect of 50% or more. This is one part of the list.

A word on the % Inhibition: it is the relative decrease from the control value, in per cent.

This assay has as its system Plasmodium falciparum. As to the kind of experiment: Primary screen in NF54 nanoGlo assay, in single point, at 2uM, 72h; a lower Z score goes with more inhibition. In kind it is functional, Erythrocyte. The settings on record: timepoint 72 hour.
As for `Cc1cc(COCC(=O)N[C@@H]2CC=CCC2)on1`, the “% Inhibition” value is -9% and the Z score is reported as 1.72.
Regarding `O=C(NC(c1ccccc1)c1ccccc1)N1CCC[C@H](Oc2ccncn2)C1`, the “% Inhibition” value came out at 1% and the Z score is on record as -0.14.
In the case of `Cc1nc(CCCC(=O)NC(C)(C)c2ccc3c(c2)OCO3)cs1`, the “% Inhibition” value was -7% and the Z score was found to be 0.71.
Taken in the same sequence, the figures for `C=CCO[C@@H](C)C(=O)Nc1cncc2ccccc12` were -3% and 0.34.
As to `Cc1n[nH]c(C)c1CCC(=O)N1CC[C@]2(CC(=O)NC2=O)C1`, the “% Inhibition” value is given as -11% and the Z score worked out at 0.98.
For `Cc1ccc2c(c1)N(S(C)(=O)=O)CC[C@@H](C(=O)NC1CC1)O2`, the “% Inhibition” value is 38% and the Z score is -5.45.
The corresponding values for `CC(C)[C@H](NC(=O)CCOc1ccccc1)c1ncnn1C` are -16% and 1.63.
For the molecule `COCCN(C)CC(=O)N1CC[C@]23C(=O)N(Cc4cn(nn4)CCCOc4cccc(c4)[C@H]12)c1ccccc13`, the “% Inhibition” value is on record as -13% and the Z score is on record as 2.41.
On to `CC1=C(Cc2cn([C@@H](C)c3cnn(C)c3)nn2)C(C)(C)CCC1`, for which the “% Inhibition” value is 2% and the Z score is on record as -0.19.
`COc1ccc(N2CCN(C(=O)Nc3cc(C)n([C@@H](C)C4CC4)n3)CC2)nc1`: the “% Inhibition” value is given as -1% and the Z score is 0.21.
In the case of `Cc1ccc(NC(=O)Nc2cccc(-c3ccc(N4CCN(C)CC4)nn3)c2)cc1C`, the “% Inhibition” value stood at 30% and the Z score is recorded as -1.18.
As to `CCCn1c(C)nnc1CN1CCC(O)(Cc2ccccn2)CC1`, the “% Inhibition” value is on record as -4% and the Z score is 0.79.
Regarding `Cn1nccc1C(=O)NC1CCC(=O)NC1C1CC1` (configuration not stated), the “% Inhibition” value is on record as -5% and the Z score amounted to 0.77.
For the molecule `Fc1cc2c(cc1Cl)C(NC[C@H]1CC[C@@H](c3nc(C4CC4)no3)O1)CC2` (some centres not stated), the “% Inhibition” value is -19% and the Z score was 3.58.
Taken in the same sequence, the figures for `Cc1cccc(C)c1NC(=O)C1(N(Cc2ccco2)C(=O)c2ccccc2F)CCC(C)CC1` (configuration not stated) were 13% and -1.62.
With `Cc1cc(F)ccc1OCC(=O)c1ccc2c(c1)N([C@@H](C)C(=O)NCCN1CCCC1)C(=O)CO2`, the “% Inhibition” value came to 2% and the Z score is on record as -0.37.
As to `Cc1cccc(C(=O)N2CCC3(CC2)c2[nH]c4ccccc4c2CCN3C)c1`, the “% Inhibition” value was -2% and the Z score is on record as 0.42.
Consider `Cc1noc2ncc(CNC(C)(C)c3ccccc3)cc12`, for which the “% Inhibition” value is recorded as 6% and the Z score is listed as -1.09.
As to `CC1CN(C(=O)C(=O)c2ccc(Br)cc2)CC(C)O1` (configuration not stated), the “% Inhibition” value is given as -8% and the Z score was found to be 1.32.
`O=C(CCc1cc2n(n1)CCCNC2)N1CCc2[nH]c3ccc(F)cc3c2C1`: the “% Inhibition” value is listed as -4% and the Z score came to 0.68.
In the case of `CC1CN(Cc2nnc(-c3ccc(F)cc3)o2)CC(C)O1` (configuration not stated), the “% Inhibition” value was found to be 2% and the Z score was -0.22.
For the molecule `Cc1cnc(CNc2nc(C)cc(C)n2)cn1`, the “% Inhibition” value is listed as -3% and the Z score was 0.5.
As to `CC(OC(=O)CC1CCCO1)C1CCCCN1C(=O)OC(C)(C)C` (configuration not stated), the “% Inhibition” value worked out at 5% and the Z score is -0.44.
For `COC(=O)[C@@H](C)CN(CCc1ccc(S(N)(=O)=O)cc1)C(C)=O`, the “% Inhibition” value is -3% and the Z score stood at 0.41.
For the molecule `Clc1cncc(CN[C@@H]2CCC[C@@H]2n2ccnc2)c1`, the “% Inhibition” value is on record as -9% and the Z score is 1.94.
Take `Cc1nc(-c2nnc(NC(=O)CCc3c(C)noc3C)o2)cs1`: the “% Inhibition” value is -4% and the Z score is recorded as 0.79.
In the case of `O=C(C[C@H](c1cccc(F)c1)c1c[nH]c2ccccc12)NC1CCCCC1`, the “% Inhibition” value is listed as 3% and the Z score is listed as -0.45.
`Nc1nc2ccccc2n1CCN1CCCC1`: the “% Inhibition” value is given as -9% and the Z score is on record as 0.83.
As to `Cc1n[nH]c(CN(Cc2ccc(F)cc2)C2CCOCC2)n1`, the “% Inhibition” value is -13% and the Z score was 1.47.
For the molecule `COc1cccc(CN2C[C@H](NCc3ccccc3C(F)(F)F)C[C@H]2C(=O)NC(C)C)c1OC`, the “% Inhibition” value worked out at 0% and the Z score is -0.07.
As for `Cc1nccc(O[C@H]2CCN(C(=O)c3cn(C)nn3)C2)n1`, the “% Inhibition” value was 2% and the Z score was -0.27.
Taken in the same sequence, the figures for `CC(=O)Nc1c(C)nn(-c2ccccc2)c1N1CCC(C(=O)NCCCN2CCC[C@H](C)C2)CC1` were -17% and 3.05.
As to `O=C(NCc1cccnc1-c1cccnc1)c1cc(-c2ccc(F)cc2)c[nH]1`, the “% Inhibition” value amounted to 4% and the Z score is -0.59.
Turning to `Nc1ccc(CC(=O)N2Cc3ccccc3C2)cc1`, the “% Inhibition” value is -43% and the Z score is on record as 5.1.
In the case of `CC(C)n1ncnc1NC(=O)NC[C@H]1CCCO1`, the “% Inhibition” value is 5% and the Z score is reported as -0.7.
In the case of `CC(C)(C)n1cc([C@H]2N(C(=O)c3ccc4[nH]cnc4c3)CC23CCOCC3)cn1`, the “% Inhibition” value is on record as 1% and the Z score is -0.23.
Taken in the same sequence, the figures for `Cc1nccn1CCCCNC(=O)[C@H]1CCc2[nH]nc(C(F)(F)F)c2C1` were -3% and 0.35.
For the molecule `Fc1ccc(-c2cnc3n2C[C@H](CNCc2ccc(Cl)cc2)OC3)cc1`, the “% Inhibition” value is on record as -1% and the Z score is recorded as 0.12.
`O=C1[C@@H]2CC[C@@H](CN(C3CCCCCC3)C2)N1Cc1cscn1`: the “% Inhibition” value is reported as -11% and the Z score was found to be 1.13.
The corresponding values for `Cc1cc(C)n2ncc(CN(C)Cc3n[nH]c4c3CCC4)c2n1` are 1% and -0.15.
`COCC(=O)Nc1c(O)ccc(Br)c1C`: the “% Inhibition” value was 0% and the Z score is 0.03.
